According to the RNAGym collection of RNA variant scans (doi:10.7554/elife.90254):
Read counts are not given, so values of variants with three or more changes are uncertain.

B1: OR4K15 (parent)
chain: GUUAACGGUCAUAGGCCAUGGAAACUAGGAGCACCAUUUCGCUGCCAGUGAAGAAAUGAACAAAGAAAAUCUGGGCCAGGCAGGCAUCAAAAGAAAUAGUCUUGCGCUCAACCAGAAAGUCUGUAAUCAUUUUAAGGGUA

Variants of: B1
Test: self-cleavage, relative activity (ratio to wild type); higher = more cleavage; in vitro, sequencing; the parent is a self-cleaving ribozyme

Variant	self-cleavage
U38C A47U U132C	1.14
U37C A55G A116G U132C	0.62
U37C A56G A59G A60G U108A	0
C35G A54G U100C U103C	1.91
A36G C40A G44A A60U A86G	1.63
C35U U43C A126G	0.52
U37C A63G A68G G74A A135G	0.21
U37C A55U A66G	2.07
U38C A47U G84A U103C	1.1
U38C A55G A63G U72A	0.37
A36U C105U U132C	0.07
A36G U43C U103C	0.81
U37C U49C U130C	0.63
U37C U43C U49C A54G A91U	2.01
A36G A69G A96U U103A	0.49
U37C A60G A126C	1.05
A36U U37C G48U A62G A78C	0.42
U37C U102C U133C	1.86
U37C A95G A116G	0.59
U37C C40U U87A A114G A125G	0.11
U37C U49C A111G	0.03

Variant	self-cleavage
U37C U57C U72A	0.24
A36G A116G U124C U133C	0.28
A36U A55G U103A	0.6
C35U U37C A60G	1.49
C34U A36U A134G	1.67
A36G A47G U103C U132C	0.64
U37C U38C A52G	1.8
U37C U39A A60U U87C A110U	1.75
U37C A66G A68G U127C	1.29
A36G A67G A90G U124C	1.18
A36U U43C A86C U132C	1.5
A36U U38C A67G A89C A92G C113U U120G	0.04
U37C A90G A116U U131C	0.04
U37C U72A U87C A89G A91G A92G	0.05
A36G U108C A117G	0
U37G U57C U102C	2.29
A36U A62G A86G A118G	1.26
U38C A51G A59G U100A U131C G136U	0.31
A36G A114G A129G	0.25
U37C U49C A60G	1.43
A36G A60G A89G A92G G136A	2.21

Variant	self-cleavage
U37C C61U A68U G99A	0.82
A36G A47G A52G A92G	0.91
U37C A94G A126G A135G	0.56
U37C A60G G83U A94G U130C	0.38
A36G A52U A66U A110U U127C	0.48
U37C A68U A140U	2.24
A36G U43C U49C A56G U100C A129C	1.44
U37C A52G G58A A64G A91G	0.46
U37C A66G A68G	0.68
A36G U49C A56G A67G	1.01
A36G U100C A111G	0.02
A36C A66U A95G U97C	1.28
C35U U72A A95G	0.19
U38A U120C U124C U131A	0.42
U37C U39A U102C	1.9
U37C A69G U124C	0.2
A36G G44A A90G A96G A116G	0.21
U37C A78U C88A	0.43
U37C A92G U102C A114G A126G U130C	0.1
A36G U87C A92G U124C	0.68
A36U U70C A95G	0.86

Variant	self-cleavage
A36G A82G A86U	1.41
U38C A47G U70A A117G	0.74
U37A A55U U103A U130C	0.39
U37C U38C A64C	0.77
U38C A55G A67G	0.73
A36U U108C A110U A118U	0
A36G A66G A95G	1.61
A36U U43C A54G	1.65
U37C A55U U70C	1.04
U37C A117G A135G	1.54
U37C U57C U70G A89G U131C	0.58
U37C G48A A51G U57A	1.69
U38A A54U G74A A86G U102A	0.11
U37C G41U U108C	0.02
A36G A60G A68G	2.12
A36G A90G U120C	0.31
U37G C107U U108A U127C	0
U38C A55C A111U G136A	0.11
C35U G53A U87G A114U	0.02
U37C A68G U72C A90G	0.05
